From patent EP4700043A1, “INSECTICIDAL PEPTIDE DERIVED FROM SCORPION VENOM” (Kyoto University, priority 2023, dated 2024)
Not every detail of the peptide structures is certain; ends, links or a residue may be inferred. Bridge positions count the residues as written; N and C are the ends. Peptide text beside a SMILES is read from it.

Assays:
[1] = tested on: crickets (Acheta domesticus, 45 to 55 mg); test: Insecticidal activity by injection into the thorax of crickets (paralysis and death counts); type: in vivo; conditions: 200 µg/g body weight injected into thorax, n=10
crickets = test: Median lethal dose (LD50) of insecticidal activity on crickets; type: in vivo, Acheta domesticus; conditions: injection into thorax, n=10 (Example 4, Tables 4 and 6)

## CSCC[C@@H]1NC(=O)[C@@H](NC(=O)[C@H](CO)NC(=O)[C@H](CC(N)=O)NC(=O)CN)CSSC[C@@H](C(=O)N[C@@H](CC(N)=O)C(=O)N[C@@H](CCCCN)C(N)=O)NC(=O)[C@H](C)NC(=O)[C@H](CCCCN)NC(=O)[C@H](CCC(=O)O)NC(=O)[C@@H]2CSSC[C@H](NC(=O)[C@H](C(C)C)NC(=O)[C@H](CCC(=O)O)NC1=O)C(=O)N[C@@H](CC(C)C)C(=O)N[C@@H](CCC(N)=O)C(=O)N[C@@H](Cc1c[nH]cn1)C(=O)N[C@@H](CCC(=O)O)C(=O)NCC(=O)N[C@@H](CC(N)=O)C(=O)N[C@@H](C(C)C)C(=O)N[C@@H](C)C(=O)N[C@@H](CCC(=O)O)C(=O)N2 [La-κKTx1] (H-GNSCMEVCLQHEGNVAECEKACNK-NH2; disulfide 4-22, 8-18)
[1]; counted after 1 hour
  Number of individuals with paralysis: 0 / 10 (crickets)
[1]; counted after 48 hours
  Number of dead individuals: 0 / 10 (crickets)
crickets
  LD50: >200 µg / g body weight
